Measurements from the supplement of paper PMC3334620.
Over roughly 33,000 sequences, “E-score (-0.5 to 0.5)” has its median near -0.012; the highest 2% begin near 0.29. The list shows a part of the results.

Each sequence was assayed against T1, Ybr033w (UniProt P38073) (assay: PBM E-score (8-mer binding enrichment) (E-score (-0.5 to 0.5)); higher = stronger / more preferred TF binding; most listed sequences are background and not binding sites). Conditions: protein concentration: 200 nM; construct: GST-full length.
T1 sequence: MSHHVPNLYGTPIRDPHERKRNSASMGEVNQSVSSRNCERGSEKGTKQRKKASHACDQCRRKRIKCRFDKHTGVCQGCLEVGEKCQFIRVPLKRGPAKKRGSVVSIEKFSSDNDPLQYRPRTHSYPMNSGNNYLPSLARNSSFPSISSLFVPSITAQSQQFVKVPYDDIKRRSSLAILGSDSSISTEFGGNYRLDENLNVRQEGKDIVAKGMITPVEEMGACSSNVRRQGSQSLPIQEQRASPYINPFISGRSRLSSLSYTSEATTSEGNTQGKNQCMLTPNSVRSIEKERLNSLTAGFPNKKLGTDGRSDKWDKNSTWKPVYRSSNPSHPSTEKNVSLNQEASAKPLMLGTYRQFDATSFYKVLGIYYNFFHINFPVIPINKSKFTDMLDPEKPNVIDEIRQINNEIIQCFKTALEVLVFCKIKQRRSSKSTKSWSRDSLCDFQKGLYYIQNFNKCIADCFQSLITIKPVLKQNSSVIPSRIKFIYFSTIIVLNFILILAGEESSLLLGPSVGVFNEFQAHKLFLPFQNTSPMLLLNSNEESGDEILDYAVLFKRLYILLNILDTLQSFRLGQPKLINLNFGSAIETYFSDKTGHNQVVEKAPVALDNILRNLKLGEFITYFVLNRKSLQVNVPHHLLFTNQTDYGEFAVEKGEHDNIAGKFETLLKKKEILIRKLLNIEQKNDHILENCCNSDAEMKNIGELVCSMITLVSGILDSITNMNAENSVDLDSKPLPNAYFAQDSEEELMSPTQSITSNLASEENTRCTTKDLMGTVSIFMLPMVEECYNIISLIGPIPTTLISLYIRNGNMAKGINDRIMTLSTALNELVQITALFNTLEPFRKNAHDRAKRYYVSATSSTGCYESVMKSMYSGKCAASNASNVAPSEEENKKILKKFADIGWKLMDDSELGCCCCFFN
Procedure, shortened: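 Bound GST-tagged yeast transcription factors, applied at about 100-200 nM to double-stranded universal all-10-mer Agilent arrays, were detected with fluorescent anti-GST. Scans were normalised with masliner. A modified Wilcoxon-Mann-Whitney statistic, the E-score, was assigned to each ungapped eight-base word pooled with its reverse complement by the Universal PBM Analysis Suite.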
With CTTTAAAA the “PBM E-score” value was 0.2. In the case of AATCTGAG, the “PBM E-score” value is reported as 0.0159. In the case of ACGGTCTG, the “PBM E-score” value is reported as -0.0461. CAATACGA was tested, and the “PBM E-score” value was 0.141. For GAGTATAC, the “PBM E-score” value was 0.0107. For GTGCCCAA, the “PBM E-score” value was -0.112. For GCCTTGCC, the “PBM E-score” value was -0.157. CAGCTACA was tested, and the “PBM E-score” value was 0.0259. In the case of GACTAAGC, the “PBM E-score” value is reported as -0.0518. For TCTGTTAA, the “PBM E-score” value was 0.0426. For AGCACGCA, the “PBM E-score” value was -0.0508. In the case of ACATGAGA, the “PBM E-score” value is reported as 0.183. ATTAGAAC was tested, and the “PBM E-score” value was 0.168. In the case of AAACCCCT, the “PBM E-score” value is reported as -0.371. For ACGGGTTG, the “PBM E-score” value was -0.177. With GGTAAGCA the “PBM E-score” value was -0.0606. ATGGGCGC was tested, and the “PBM E-score” value was -0.203. CCGAAGTC was tested, and the “PBM E-score” value was -0.0348. With CTACGCCA the “PBM E-score” value was -0.0185. In the case of GCACACCC, the “PBM E-score” value is reported as -0.263. ACTACGCT was tested, and the “PBM E-score” value was -0.0504. With TCAGGGCA the “PBM E-score” value was -0.0793. For TGCATCCA, the “PBM E-score” value was -0.0886. For CTGTTATA, the “PBM E-score” value was 0.0916. For AAGCTATT, the “PBM E-score” value was 0.00398. For ACGACGAG, the “PBM E-score” value was -0.147. With GATTGTAA the “PBM E-score” value was 0.156. CAACTTAG was tested, and the “PBM E-score” value was 0.146. AAACGGAG was tested, and the “PBM E-score” value was -0.0435. GATGTTCA was tested, and the “PBM E-score” value was -0.079. In the case of ACAAGTTG, the “PBM E-score” value is reported as -0.0208. For GACGGTCC, the “PBM E-score” value was -0.273. For CAACGGGC, the “PBM E-score” value was -0.145. CCGGAGCG was tested, and the “PBM E-score” value was -0.124. AAATTTAG was tested, and the “PBM E-score” value was 0.278. With GCCAACGA the “PBM E-score” value was 0.00414. With AACAAACA the “PBM E-score” value was 0.193. In the case of CCTGCGTC, the “PBM E-score” value is reported as -0.206. GCGCGACA was tested, and the “PBM E-score” value was -0.0301. For GCACCAAC, the “PBM E-score” value was -0.251. For CAGAGCTC, the “PBM E-score” value was -0.265. With ACGGTTCA the “PBM E-score” value was -0.308. For GAGTTACC, the “PBM E-score” value was -0.0841. With GAACCGTC the “PBM E-score” value was -0.145. AGAGATCT was tested, and the “PBM E-score” value was -0.0343. With AGGCACAA the “PBM E-score” value was -0.0351. For ACGGGCTC, the “PBM E-score” value was -0.32. In the case of TACGACTA, the “PBM E-score” value is reported as 0.0548. With ATCTATTG the “PBM E-score” value was 0.204. GCCACTTA was tested, and the “PBM E-score” value was 0.0976. GAGGTGCC was tested, and the “PBM E-score” value was -0.195. For GGGAATGA, the “PBM E-score” value was 0.106. In the case of AGACGCGG, the “PBM E-score” value is reported as -0.0643. For CCCCACTA, the “PBM E-score” value was -0.189. In the case of CAGCATAC, the “PBM E-score” value is reported as -0.00523. In the case of CAACCTCA, the “PBM E-score” value is reported as -0.0705. GCCCTTGA was tested, and the “PBM E-score” value was -0.0561. CTACTGCC was tested, and the “PBM E-score” value was -0.141. With CGGAAGAA the “PBM E-score” value was 0.462. In the case of TAGATGAA, the “PBM E-score” value is reported as 0.105. CCCGCAAC was tested, and the “PBM E-score” value was -0.123. With GAGGCTAA the “PBM E-score” value was 0.0916. With CGGCAGGA the “PBM E-score” value was -0.148. For AAAAACTG, the “PBM E-score” value was 0.109. With CGGTGGCC the “PBM E-score” value was -0.166. With ACGCTAGT the “PBM E-score” value was -0.0989. In the case of AAGCTGCA, the “PBM E-score” value is reported as -0.0266. AAGGTGAG was tested, and the “PBM E-score” value was 0.0488. In the case of AAGCCTCT, the “PBM E-score” value is reported as -0.287. With CAAATTGA the “PBM E-score” value was 0.00834. With TACGAACA the “PBM E-score” value was 0.0716. In the case of GCGCAGTA, the “PBM E-score” value is reported as -0.082. For AGAACAGG, the “PBM E-score” value was -0.125. In the case of CATAATCC, the “PBM E-score” value is reported as 0.0679. TTGTTAAA was tested, and the “PBM E-score” value was 0.0557. CTTGCCCC was tested, and the “PBM E-score” value was -0.288. ATATCTTC was tested, and the “PBM E-score” value was 0.218. GAATGGGA was tested, and the “PBM E-score” value was -0.114. GATCGTCC was tested, and the “PBM E-score” value was -0.0484. ACTACGTC was tested, and the “PBM E-score” value was -0.0604. For CCGAATTA, the “PBM E-score” value was 0.00463. For CACGGTTC, the “PBM E-score” value was -0.265. With AAGCACCC the “PBM E-score” value was -0.198. For ACCTACCT, the “PBM E-score” value was -0.0698. For ATGACGCC, the “PBM E-score” value was -0.125. For AAATATGA, the “PBM E-score” value was 0.229. In the case of ATCGAACG, the “PBM E-score” value is reported as -0.131. In the case of ACATCTGC, the “PBM E-score” value is reported as -0.175. CTGAGGAC was tested, and the “PBM E-score” value was 0.0142. In the case of GGTGTCGA, the “PBM E-score” value is reported as -0.0898. In the case of AGGGTAAA, the “PBM E-score” value is reported as 0.178. In the case of CCAATCAA, the “PBM E-score” value is reported as 0.075. For AACATATG, the “PBM E-score” value was 0.13. For AACTTAAT, the “PBM E-score” value was 0.314.
